Data: patent US20220348632A1 (Novartis, published 2022)
Several values for one entry are separate records, joined by “and”; a condition that tells them apart may be missing. Equal values may be shown once.

Key:
[1] = molecular target: T1, cynomolgus MICA*08 over-expressed on CT26.WT cells (cynomolgus); assay: cell-based or functional assay
[2] = molecular target: human MICB*001 over-expressed on CT26.WT cells (human); assay: cell-based or functional assay
[3] = molecular target: T2, human MICA*008 over-expressed on CT26.WT cells (human); assay: cell-based or functional assay
T2 sequence (Q29983 whole entry, looked up): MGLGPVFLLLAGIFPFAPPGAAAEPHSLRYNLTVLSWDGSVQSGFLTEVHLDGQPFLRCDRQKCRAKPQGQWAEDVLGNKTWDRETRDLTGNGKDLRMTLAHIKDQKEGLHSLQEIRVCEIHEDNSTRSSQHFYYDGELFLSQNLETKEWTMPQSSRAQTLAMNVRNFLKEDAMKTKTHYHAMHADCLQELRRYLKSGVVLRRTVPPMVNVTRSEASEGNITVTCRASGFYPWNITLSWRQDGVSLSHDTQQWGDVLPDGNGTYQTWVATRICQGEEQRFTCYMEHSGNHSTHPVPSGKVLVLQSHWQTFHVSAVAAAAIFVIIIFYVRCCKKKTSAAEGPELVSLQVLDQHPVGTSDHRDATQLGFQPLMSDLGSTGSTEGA

[4] = molecular target: T1, cynomolgus MICA*08 over-expressed on …; assay: flow cytometry titration of HH8 on 293FT cells over-expressing cyMICA*08; fluorescent secondary antibody, fluorescence intensity
Protocol: (§1) 6e6 293FT cells (Invitrogen) were plated into a 10 cm dish with 10 mL cD10, then 3 hours later media was changed to 5 mL pre-warmed Opti-MEM1. Cells were transfected 4 hours after OptiMem-1 addition using lipofectamine-2000 according to manufacturers instructions with DNA plasmids encoding for the indicated ligands. After overnight incubation, the cells were harvested with two sequential washes of 5 mL PBS+2 mM EDTA. Cells were counted on a Nexcelom Cell Counter, and 100e3 cells were resuspended in PBS+2 mM EDTA+2% Fetal Bovine Serum (FACS Buffer) with 10 ug/mL HH8 or 10 ug/mL Human IgG1 Isotype. Cells were stained for 15 minutes at 4 degrees, then washed once in 200 uL FACS Buffer, and stained with a secondary antibody, Alexa488-labeled goat anti-huIgG (A11013, Thermo Fisher) for 15 minutes at 4 degrees. Cells were then washed once in 200 uL FACS Buffer, resuspended in 100 uL FACS Buffer and fixed with an additional 100 uL of IC Fixation Buffer (eBioscience) before running on a BD Fortessa and analyzing in Flowjo (see, e.g., FIGS. 12A-12B).

[5] = molecular target: T3, cynomolgus MICB*05 over-expressed on CT26.WT cells (cynomolgus); assay: flow cytometry titration of HH8 on 293FT cells over-expressing cyMICB*05; fluorescent secondary antibody, fluorescence intensity
T3 construct: whole, on cells; also called cyMICB*05; cyMICB05
Protocol: as §1

[6] = molecular target: T4, recombinant human MICB*001 ligand (human, UniProt Q29980 23-309, Biotinylated for capture on the SA chip in the bivalent setup, according to our card. The site is not given.); assay: SPR (Biacore T200), monovalent setup: NKG2D-Fc captured on Protein A chip, ligand as analyte
T4 construct: also called hMICB*001
T4 sequence: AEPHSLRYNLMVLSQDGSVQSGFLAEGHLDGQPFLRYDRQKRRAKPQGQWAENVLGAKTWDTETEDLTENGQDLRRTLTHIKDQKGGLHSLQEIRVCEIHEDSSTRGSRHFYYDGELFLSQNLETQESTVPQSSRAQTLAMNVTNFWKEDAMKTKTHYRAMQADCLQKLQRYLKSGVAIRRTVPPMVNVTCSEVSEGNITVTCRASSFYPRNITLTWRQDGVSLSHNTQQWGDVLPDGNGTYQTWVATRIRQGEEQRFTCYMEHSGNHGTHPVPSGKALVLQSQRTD
Protocol: (§2) A direct binding assay was performed to characterize the binding of the ADCC enhanced and wild-type NKG2D-Fc variants against recombinant human MICA*001 and MICB*001 ligands. The NKG2D-Fc variants were first used as ligand to characterize the binding of each NKG2D dimer to MICA and MICB (monovalent binding setup) and secondly as analyte in order to determine the effect on the binding when having two homodimers (bivalent binding setup).
(§3) For the monovalent binding setup, kinetic binding affinity constants (KD) were measured on protein-A captured NKG2D-Fc variants using recombinant human NKG2D ligands as analyte. Measurements were conducted on a BIAcore® T200 (GE Healthcare, Glattbrugg, Switzerland) at room temperature. The NKG2D-Fc variants were captured on the flow cell of a Protein A research grade sensor chip (GE Healthcare, ref 29127555). All proteins were diluted in 0.01 M HEPES pH 7.4, 0.15 M NaCl, 3 mM EDTA, 0.005% v/v Surfactant P20. To serve as reference, one flow cell was left blank without any captured protein. Binding data were acquired by subsequent injection of analyte dilutions series on the reference and measuring flow cell. Zero concentration samples (running buffer only) were included to allow double referencing during data evaluation. For data evaluation, doubled referenced sensograms were used and dissociation constants (KD) analyzed.

[7] = molecular target: T5, recombinant human MICA*001 ligand (human, UniProt Q29983 24-307, Biotinylated for capture on the SA chip in the bivalent setup, according to our card. The site is not given.); assay: as above
T5 construct: also called hMICA*001
T5 sequence: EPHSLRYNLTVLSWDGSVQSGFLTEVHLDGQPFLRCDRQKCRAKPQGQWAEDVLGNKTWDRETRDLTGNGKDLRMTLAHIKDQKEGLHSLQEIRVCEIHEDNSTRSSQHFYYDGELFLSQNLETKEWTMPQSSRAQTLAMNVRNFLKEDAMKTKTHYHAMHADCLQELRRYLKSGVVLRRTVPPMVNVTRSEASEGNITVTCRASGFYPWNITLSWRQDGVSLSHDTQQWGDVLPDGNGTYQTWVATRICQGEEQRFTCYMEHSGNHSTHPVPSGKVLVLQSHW
Protocol: as §2, §3

[8] = molecular target: T6, human ULBP2 expressed on cells (human, UniProt Q9BZM5 26-217); assay: cell-based or functional assay
T6 sequence (looked up): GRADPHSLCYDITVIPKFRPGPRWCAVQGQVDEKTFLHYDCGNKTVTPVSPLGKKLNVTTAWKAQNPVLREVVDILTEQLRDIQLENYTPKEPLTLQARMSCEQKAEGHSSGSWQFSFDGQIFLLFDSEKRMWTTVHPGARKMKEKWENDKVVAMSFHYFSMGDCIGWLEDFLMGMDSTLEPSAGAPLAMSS

B1: HH8, hNKG2D(aa84-216)-RS(G3S)2-hNKG2D(aa84-216)-hFc1 (Fc fusion)
chain: NQEVQIPLTESYCGPCPKNWICYKNNCYQFFDESKNWYESQASCMSQNASLLKVYSKEDQDLLKLVKSYHWMGLVHIPTNGSWQWEDGSILSPNLLTIIEMQKGDCALYASSFKGYIENCSTPNTYICMQRTVRSGGGSGGGSNQEVQIPLTESYCGPCPKNWICYKNNCYQFFDESKNWYESQASCMSQNASLLKVYSKEDQDLLKLVKSYHWMGLVHIPTNGSWQWEDGSILSPNLLTIIEMQKGDCALYASSFKGYIENCSTPNTYICMQRTV[human IgG1 Fc left out here]
notes: Homodimer of two monomers joined through the Fc; also called NKG2D-Fc; HH8 with IgG1-Fc wt
[1]
  EC50 (ng/mL), hRGA killing (Human CD16 RGA): 2.1 ng/mL
[2]
  EC50 (ng/mL), hRGA killing (Human CD16 RGA): 35 ng/mL
[3]
  EC50 (ng/mL), hRGA killing (Human CD16 RGA): 3.5 ng/mL
[4]
  EC50: 0.298 µg/mL and 2.57 nM
[5]
  EC50: 3.05 µg/mL and 26.3 nM
[6]
  Kd: 114 nM
[7]
  Kd: 60 nM
[8]
  ADCP EC50, phagocytosis by primary mouse macrophages (flow cytometry): < 1 nM
